According to PubChem BioAssay AID1159614 (National Center for Advancing Translational Sciences (NCATS), 2016):
In all, about 45,000 compounds went through this assay and about 65 (0.1%) were called active. Calls come from the whole dose curve; as a rule, active = well fitted activation curve with a large enough effect; inconclusive = small, poorly fitted or top-dose-only effect; inactive = no such curve, though single readings can be large or run the other way. The list shows a part of the results.

The molecules below were run against Galactocerebrosidase (Homo sapiens) (UniProt P54803) (assay: A Novel Cell-Based Assay to Identify Small Molecules for B -Galactocerebrosidase). Details: 145M-Twi-hGALC-G270D cells (Twitcher mouse brain line with human GALC G270D), HMU-beta-Gal fluorescence, 48 h; series mostly up to 57.5 µM; activation: at the top concentration.
Summary of the method: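 Fluorogenic HMU-b-Gal hydrolysis (0.1 mM final, pH 5.2 citrate-phosphate with 1 mg/mL sodium taurocholate; carbonate stop buffer) measures mutant GALC activity after compound treatment of live 145M-Twi Twitcher brain cells stably carrying human GALC-G270D, with wild-type GALC line alongside; activation sought.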
Note: 0% is about no effect; nearly all actives have a fitted effect of over 65% in size.

Chain of UniProt P54803 (P54803 whole entry, looked up): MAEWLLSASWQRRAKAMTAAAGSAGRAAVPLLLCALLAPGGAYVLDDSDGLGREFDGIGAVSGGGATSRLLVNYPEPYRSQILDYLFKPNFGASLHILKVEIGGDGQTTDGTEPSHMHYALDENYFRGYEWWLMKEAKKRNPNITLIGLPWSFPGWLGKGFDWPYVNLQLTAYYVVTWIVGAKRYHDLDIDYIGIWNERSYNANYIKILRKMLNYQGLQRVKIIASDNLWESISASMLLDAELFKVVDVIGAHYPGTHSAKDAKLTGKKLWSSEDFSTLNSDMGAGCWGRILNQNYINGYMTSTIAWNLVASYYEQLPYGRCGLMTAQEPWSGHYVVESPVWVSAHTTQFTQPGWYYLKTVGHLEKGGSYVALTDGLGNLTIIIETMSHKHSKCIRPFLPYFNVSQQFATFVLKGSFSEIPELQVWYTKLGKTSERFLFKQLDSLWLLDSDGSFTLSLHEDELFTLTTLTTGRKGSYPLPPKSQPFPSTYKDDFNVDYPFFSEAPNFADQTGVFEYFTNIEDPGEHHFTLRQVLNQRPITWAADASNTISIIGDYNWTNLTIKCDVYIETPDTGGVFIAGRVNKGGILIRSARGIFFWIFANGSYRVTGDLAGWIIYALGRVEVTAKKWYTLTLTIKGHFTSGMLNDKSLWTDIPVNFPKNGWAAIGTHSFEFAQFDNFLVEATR

activation, inactive:
COc1ccc(C(=O)NCC(c2cccnc2)N2CCN(c3ccccc3)CC2)cc1 (stereo unspecified) -7.94%
CCCc1nn2c(=O)cc(COC(=O)c3cccc(NC(=O)c4cccs4)c3)nc2s1 -5.81%
CCOC(=O)c1ccccc1NC(=O)CN1CCCN(Cc2cc(C)ccc2C)S1(=O)=O -17.2%
COc1cc(NC(=O)CN2C(=O)c3ccccc3Sc3ccc(C(=O)N4CCCC4)cc32)cc(OC)c1 -30.4%
COc1ccc(OC)c(CCNC(=O)c2ccc3c(c2)c(C)c(C)n3Cc2ccccc2)c1 -9.02%
Cc1ccccc1NC(=O)c1ccc(F)c(S(=O)(=O)N2CCN(c3ccccc3F)CC2)c1 -5.09%
COc1ccc(-c2nc(CSc3nncn4c3cc3oc(C)cc34)c(C)o2)cc1 -8.03%
O=C(NCCc1ccccc1)C(=O)NCC(c1ccco1)S(=O)(=O)c1cccs1 (stereo unspecified) -18.3%
Cc1ccc(Cl)cc1NC(=O)COC(=O)CC(C)(C)CC1=NS(=O)(=O)c2ccccc2N1 -5.21%
Cc1ccc(-n2nnc(-c3nc(-c4cccs4)no3)c2N)cc1C -24.2%
Cc1oc2ncnc(N3CCCCC3)c2c1C(=O)NCC1CCN(Cc2cccc(F)c2)CC1 -18.6%
CCN1CCN(CCCNC(=O)CS(=O)(=O)Cc2nc(-c3cccc(OC)c3)oc2C)CC1 -16.7%
CCOC(=O)c1[nH]c2ccccc2c1NC(=O)c1ccccc1F -11.6%
COc1ccc(-n2c(SCC(=O)NCc3ccccc3)nc3c([nH]c4ccccc43)c2=O)cc1 -9.08%
O=C(CCC1N=C2c3ccccc3N=C(SCC(=O)Nc3ccc(F)cc3)N2C1=O)NCc1ccco1 (stereo unspecified) -17.5%
COc1cc(Nc2nc(SCC(=O)c3ccc(Cl)c(Cl)c3)nc3ccccc23)cc(OC)c1 -8.75%
Nc1nn(-c2ccccc2)nc1C(=O)OCc1c(F)cccc1Cl 3.56%
Cc1ccc(N(Cc2cccs2)C(=O)c2ccco2)cc1 7.5%
CC(C)N(C(=O)Cn1cc(S(=O)(=O)Cc2ccc(Cl)cc2)c2ccccc21)C(C)C -15.4%
COc1ccc(NC(=O)CC2Nc3ccccc3NC2=O)cc1 (stereo unspecified) -6.24%
Cc1cc(C(=O)NCc2ccccc2)c2c(C)nn(-c3cccc(F)c3)c2n1 -2.97%
COc1ccc(Nc2nn(-c3ccc(OC(F)(F)F)cc3)nc2C(C)=O)cc1 -13.7%
Cc1ccc(CNC(=O)c2ccc(CS(=O)(=O)Cc3ccc(C)cc3)o2)cc1 3.23%
Cc1nn(-c2ccccc2)c2c1N(CC(=O)N1CCN(c3ccccc3F)CC1)C(=O)CS2 -3.95%
COc1ccccc1Nc1ncnc2scc(-c3ccc(F)cc3)c12 -24.2%
Cc1ccc(CNc2ccc3cc(S(=O)(=O)N4CCCCC4)ccc3n2)cc1 -45.3%
COc1ccc(OC)c(NC(=O)c2ccc3c(Cl)c4c(nc3c2)CCCC4)c1 -6.42%
COc1cc(OC)c(NC(=O)N2CCC(CN3CCCC3)CC2)cc1Cl -8.66%
CCOC(=O)c1ccc(Nc2nn3c(=O)c4ccccc4nc3s2)cc1 -23.9%
CCCCN(C)C(=O)Cn1cnc2sc(C)c(S(=O)(=O)N3CCC(C)CC3)c2c1=O -14.2%
CCCCN(CCCNC(=O)c1cc(Nc2ccccc2OC)nc2ccccc12)c1ccccc1 -7.22%
COc1ccc(C2(CNC(=O)C(=O)Nc3ccccc3C)CCCC2)cc1OC -5.47%
COc1ccc(CNC(=O)c2cccn2-c2nnc(N3CCCC3)s2)c(OC)c1 -8.71%
Cc1ccc(S(=O)(=O)c2nc(-c3ccc(F)cc3)oc2N2CCN(c3ccccc3)CC2)cc1 -18.9%
CCN(CC)c1ccc(C2Nc3ccccc3-c3cc(C)nn32)cc1 (stereo unspecified) -19.8%
Cc1ccc(NC(=O)C2CCCN(S(=O)(=O)c3c(C)noc3C)C2)cc1 (stereo unspecified) 6.17%
Cc1cccc(-n2c(=O)c3c4c(sc3n3c(C)nnc23)CCCC4)c1 -8.69%
COc1ccc(NC(=O)c2oc3ccccc3c2NC(=O)C2CCCCC2)c(OC)c1 -3.77%
Nc1c(C(=O)Nc2ccccc2)sc2nc3c(cc12)CN(Cc1ccccc1)CC3 1.05%
Clc1ccc(-n2c(Cc3ccccc3)nnc2SCc2nc(-c3cccs3)no2)cc1 -8.38%
Cc1cc(C)c(/C=C/c2onc(C)c2S(=O)(=O)N2CCC(C(=O)NCCc3ccccc3)CC2)c(C)c1 -11.1%
CCOc1cc(C#N)c(-n2nnc3c(sc4nc(C)cc(C)c43)c2=O)cc1OCC -21.6%
CCCCN(C)C(=O)c1ccc2c(c1)N(Cc1cccc(F)c1)C(=O)c1ccccc1S2 0.839%
NS(=O)(=O)c1ccc(C(=O)O)cc1 -7.83%
CCOC(=O)c1scc(-c2ccc(C)cc2)c1S(=O)(=O)Nc1cc(OC)ccc1OC -9.04%
CCc1cccc(C)c1NC(=O)C1CCCN1S(=O)(=O)c1cccc2nsnc12 (stereo unspecified) -18.8%
COC(=O)c1ccc(NC(=O)Cn2cnc3c2c(=O)n(C)c(=O)n3C)cc1 -20.1%
O=C(Cn1c(=O)c2cccn2c2ccccc21)NCc1ccccc1F -7.54%
Cc1cccc(N(CC(=O)NCCSCc2ccccc2)S(=O)(=O)c2ccccc2)c1C -11.8%
Cc1ccc(C(=O)c2cn(Cc3ccccc3)c3nc(C)ccc3c2=O)cc1 -8.75%
Cc1nc(N2CCCC2)c2c(C(=O)N3CCN(c4cc(Cl)ccc4C)CC3)c(C)oc2n1 -34.9%
CCn1c(=O)c(=O)n(CC)c2cc(S(=O)(=O)Nc3ccc(C)cc3)ccc21 -12.2%
CCCC(=O)N1CCN(c2nc3ccc(F)cc3s2)CC1 -20.4%
Cc1cccc(-c2nc(S(=O)(=O)c3ccc(F)cc3)c(N3CCN(c4ccccc4)CC3)o2)c1 -10.2%
CC(C)c1ccc(NC(=O)c2cc3c(s2)-c2ccccc2SC3)cc1 -8.24%
Cc1ccc(CCNC(=O)c2ccc3c(c2)N(Cc2cccc(C)c2)C(=O)c2ccccc2S3(=O)=O)cc1 -0.0483%
CCOC(=O)c1ccccc1NC(=O)Cn1cc(C(=O)c2cccc(OC)c2)c(=O)c2ccc(C)nc21 2.69%
CCOC(=O)c1c(C)[nH]c(CCC(=O)NCCCN2CCN(c3ccc(F)cc3)CC2)c1C -13.6%
CCCCCCCCCCCCCCCC[N+](C)(C)CCN(Cc1ccc(OC)cc1)c1ncccn1 -11.2%
CCc1ccc(N=C2NC(=O)CC(C(=O)Nc3ccc(OC)cc3)S2)cc1 (stereo unspecified) -20%
COc1cc2c(cc1OC)C(COc1ccccc1OC)N(C(=O)CC(C)C)CC2 (stereo unspecified) -13.7%
Cc1cc(=O)[nH]c2nnc(SCC(=O)NC(C)(C)C)n12 -15.1%
O=C(CN1C(=O)COc2ccc(S(=O)(=O)N3CCCCCC3)cc21)NCc1ccc(Cl)cc1 -14.1%
CC(=O)N1CCc2cc(CNS(=O)(=O)c3ccc(F)cc3)ccc21 -8.04%
CCc1c(C)sc2c1CCN(Cc1cccc(F)c1)C2c1ccccc1 (stereo unspecified) -5.64%
O=C(NCc1cccc(Cl)c1)c1cc2c(s1)-c1ccccc1OC2 -25.1%
CCc1ccc(-c2cn3c(n2)sc2cc(C(=O)NC4CCCCCC4)ccc23)cc1 -21.4%
COc1ccc(Cl)cc1Nc1sc(C(=O)c2ccccc2)c(N)c1C(=O)Nc1ccccc1 -11.8%
CC(=O)Nc1ccc(C(=O)CSc2nnc(-c3ccccc3)n2-c2ccccc2)cc1 -4.64%
Cc1ccc(NC2=C(c3ccc(C(F)(F)F)cc3)C(=O)c3ccccc32)cc1C -15%
Cc1ccc(S(=O)(=O)c2nc(-c3ccccc3F)oc2N2CCCCC2)cc1 -20.1%
Cc1ccc(-c2cc(C(=O)NCc3cnn(C)c3C)c3cc(Br)ccc3n2)cc1 -14.2%
COCCc1nn2c(=O)cc(COC(=O)c3ccc4c(c3)OCO4)nc2s1 -10.7%
COc1ccc(CCN2C(=O)c3oc4cc(C)cc(C)c4c(=O)c3C2c2ccc(F)cc2)cc1OC (stereo unspecified) 0.353%
COc1ccccc1N1CCN(C(=O)c2ccc(CS(=O)c3ccccc3C)o2)CC1 (stereo unspecified) -7.93%
O=C(NC1CC1)c1ccc(Cn2c(SCc3cccc(F)c3)nc3cccnc32)cc1 1.05%
O=C(Nc1ccc(Cl)cc1)C1CCN(c2nc3ccccc3nc2C(F)(F)F)CC1 -2.03%
O=C(NCC(c1cccnc1)N1CCc2ccccc2C1)c1ccc(F)c(F)c1 (stereo unspecified) -10.2%
O=C(O)P(=O)(O)O -9.37%
CCC(CC)C(=O)Nc1ccc(OCc2cc(=O)n3c4c(sc3n2)CCCC4)cc1 -11.2%
CCS(=O)(=O)N1CCc2cc(C(=O)NCc3ccc(OC)cc3)ccc21 -14.5%
Cn1cc(S(=O)(=O)c2cccc(Cl)c2)c(=O)c2cc(F)c(N3CCCCCC3)cc21 -15.9%
CCOc1ccc(NC(=O)c2ccc3c(SCC(=O)O)c4c(nc3c2)CCCC4)cc1 -26%
Cc1ccc(C)c(N2CCN(C(=O)C3CCN(c4nc(-c5ccc(C(C)C)cc5)no4)CC3)CC2)c1 -6.07%
Cc1ccc(C(=O)N2CCc3cc(CNS(=O)(=O)c4ccc(Cl)s4)ccc32)cc1 -6.87%
CCOc1ccc(C2CC(=O)n3nc(-c4ccc(C)cc4)nc3S2)cc1OC (stereo unspecified) -13.6%
Fc1ccc(-c2nc(Nc3ccc(F)c(Cl)c3)nc3c2COc2ccccc2-3)cc1 -11.3%
CC(C(=O)Nc1cccc(C#N)c1)n1nc(-c2ccccc2)c2c(c1=O)CCCC2 (stereo unspecified) -14.5%
CCOC(=O)C1CCCN(C(=O)c2ccc3c(c2)N(Cc2ccccc2)C(=O)c2ccccc2S3(=O)=O)C1 (stereo unspecified) -9.49%
CC1=C(C(=O)Nc2ccc(C)cc2C)C(c2ccccc2[N+](=O)[O-])n2ncc(C(=O)Nc3ccccc3)c2N1 (stereo unspecified) -2.94%
O=C(Nc1ccc(NC(=O)c2cc3ccccc3o2)cc1)c1ccccc1 -34%
Cn1cc(S(=O)(=O)c2ccc(Cl)cc2)c(=O)c2cc(F)c(N3CCCCCC3)cc21 -15.1%
O=C(CN1CCN(S(=O)(=O)c2cc(Cl)ccc2Cl)CC1)Nc1cccc(F)c1 -36.7%
CCOc1ccc(N2CC(c3nc4ccccc4n3Cc3cccc(Cl)c3)CC2=O)cc1 (stereo unspecified) -8.29%
Cc1nn(CCCC(=O)NCc2ccc(F)cc2)c(=O)c2c1sc1ccccc12 -6.89%
Cc1c2cnn(CC(=O)N3CCN(c4ccc(F)cc4)CC3)c(=O)c2c(C)n1Cc1ccc(F)cc1 -27.6%
